# The list shows a part of the results.
# How the values were obtained:
# Assay in all cases: glycan array binding signal (z-score within array); higher = stronger binding
# Details in all cases: glycan notation: IUPAC condensed, linker removed
# [1] = molecular target: Neu5Ac(a2-3)Gal(b1-3)GlcNAc(b1-2)Man(a1-3)[GlcNAc(b1-4)][Neu5Ac(a2-3)Gal(b1-3)GlcNAc(b1-2)Man(a1-6)]Man(b1-4)GlcNAc(b1-4)GlcNAc
# Outline: (§1)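 Columns mapping to the same glycan were averaged after glycan names were converted to IUPAC-condensed notation. The data come from 3228 arrays in the Consortium for Functional Glycomics database, limited to those with an available protein sequence. Binding is reported as a within-array Z-score averaged across arrays of one protein sequence and across linkers.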
# [2] = molecular target: Neu5Ac(a2-3)Gal(b1-3)GlcNAc(b1-2)Man(a1-3)[Neu5Ac(a2-3)Gal(b1-3)GlcNAc(b1-2)Man(a1-6)]Man(b1-4)GlcNAc(b1-4)GlcNAc
# Outline: as §1
# [3] = molecular target: Neu5Ac(a2-3)Gal(b1-3)GlcNAc(b1-3)Gal(b1-3)GlcNAc
# Outline: as §1
# [4] = molecular target: Neu5Ac(a2-3)Gal(b1-3)GlcNAc(b1-3)Gal(b1-4)GlcNAc
# Outline: as §1
# [5] = molecular target: Neu5Ac(a2-3)Gal(b1-3)GlcNAc(b1-3)GalNAc
# Outline: as §1
# [6] = molecular target: Neu5Ac(a2-3)Gal(b1-3)GlcNAc(b1-4)Gal(b1-4)Glc
# Outline: as §1
# [7] = molecular target: Neu5Ac(a2-3)Gal(b1-3)GlcNAc(b1-6)GalNAc
# Outline: as §1
# [8] = molecular target: Neu5Ac(a2-3)Gal(b1-3)GlcNAc6S
# Outline: as §1
# [9] = molecular target: Neu5Ac(a2-3)Gal(b1-3)[Fuc(a1-4)]GlcNAc
# Outline: as §1
# [10] = molecular target: Neu5Ac(a2-3)Gal(b1-3)[Fuc(a1-4)]GlcNAc(b1-3)Gal(b1-3)[Fuc(a1-4)]GlcNAc
# Outline: as §1
# [11] = molecular target: Neu5Ac(a2-3)Gal(b1-3)[Fuc(a1-4)]GlcNAc(b1-3)Gal(b1-4)[Fuc(a1-3)]GlcNAc
# Outline: as §1
# [12] = molecular target: Neu5Ac(a2-3)Gal(b1-3)[GlcNAc(b1-6)]GalNAc
# Outline: as §1
# [13] = molecular target: Neu5Ac(a2-3)Gal(b1-3)[Neu5Ac(a2-6)]GalNAc
# Outline: as §1
# [14] = molecular target: Neu5Ac(a2-3)Gal(b1-3)[Neu5Ac(a2-6)]GlcNAc(b1-3)[Fuc(a1-3)[Gal(b1-4)]GlcNAc(b1-6)]Gal(b1-4)Glc
# Outline: as §1
# [15] = molecular target: Neu5Ac(a2-3)Gal(b1-3)]Neu5Ac(a2-3)Gal(b1-4)]GlcNAc
# Outline: as §1
# [16] = molecular target: Neu5Ac(a2-3)Gal(b1-4)Glc
# Outline: as §1
# [17] = molecular target: Neu5Ac(a2-3)Gal(b1-4)GlcNAc
# Outline: as §1
# [18] = molecular target: Neu5Ac(a2-3)Gal(b1-4)GlcNAc(b1-2)Man
# Outline: as §1
# [19] = molecular target: Neu5Ac(a2-3)Gal(b1-4)GlcNAc(b1-2)Man(a1-3)[GlcNAc(b1-4)][Neu5Ac(a2-3)Gal(b1-4)GlcNAc(b1-2)Man(a1-6)]Man(b1-4)GlcNAc(b1-4)GlcNAc
# Outline: as §1
# [20] = molecular target: Neu5Ac(a2-3)Gal(b1-4)GlcNAc(b1-2)Man(a1-3)[Neu5Ac(a2-3)Gal(b1-4)GlcNAc(b1-2)Man(a1-6)]Man(b1-4)GlcNAc(b1-4)GlcNAc
# Outline: as §1
# [21] = molecular target: Neu5Ac(a2-3)Gal(b1-4)GlcNAc(b1-2)Man(a1-3)[Neu5Ac(a2-3)Gal(b1-4)GlcNAc(b1-2)Man(a1-6)]Man(b1-4)GlcNAc(b1-4)[Fuc(a1-6)]GlcNAc
# Outline: as §1
# [22] = molecular target: Neu5Ac(a2-3)Gal(b1-4)GlcNAc(b1-2)Man(a1-3)[Neu5Ac(a2-6)Gal(b1-4)GlcNAc(b1-2)Man(a1-6)]Man(b1-4)GlcNAc(b1-4)GlcNAc
# Outline: as §1
# [23] = molecular target: Neu5Ac(a2-3)Gal(b1-4)GlcNAc(b1-2)[Neu5Ac(a2-3)Gal(b1-4)GlcNAc(b1-4)]Man(a1-3)[GlcNAc(b1-4)][Neu5Ac(a2-3)Gal(b1-4)GlcNAc(b1-2)[Neu5Ac(a2-3)Gal(b1-4)GlcNAc(b1-6)]Man(a1-6)]Man(b1-4)GlcNAc(b1-4)GlcNAc
# Outline: as §1
# [24] = molecular target: Neu5Ac(a2-3)Gal(b1-4)GlcNAc(b1-2)[Neu5Ac(a2-3)Gal(b1-4)GlcNAc(b1-4)]Man(a1-3)[GlcNAc(b1-4)][Neu5Ac(a2-3)Gal(b1-4)GlcNAc(b1-4)Man(a1-6)]Man(b1-4)GlcNAc(b1-4)GlcNAc
# Outline: as §1
# [25] = molecular target: Neu5Ac(a2-3)Gal(b1-4)GlcNAc(b1-2)[Neu5Ac(a2-3)Gal(b1-4)GlcNAc(b1-6)]Man(a1-6)[Neu5Ac(a2-3)Gal(b1-4)GlcNAc(b1-2)Man(a1-3)]Man(b1-4)GlcNAc(b1-4)GlcNAc
# Outline: as §1
# [26] = molecular target: Neu5Ac(a2-3)Gal(b1-4)GlcNAc(b1-2)[Neu5Ac(a2-3)Gal(b1-4)GlcNAc(b1-6)]Man(a1-6)[Neu5Ac(a2-3)Gal(b1-4)GlcNAc(b1-2)Man(a1-3)][GlcNAc(b1-4)]Man(b1-4)GlcNAc(b1-4)GlcNAc
# Outline: as §1
# [27] = molecular target: Neu5Ac(a2-3)Gal(b1-4)GlcNAc(b1-3)Gal
# Outline: as §1
# [28] = molecular target: Neu5Ac(a2-3)Gal(b1-4)GlcNAc(b1-3)Gal(b1-3)GlcNAc
# Outline: as §1
# [29] = molecular target: Neu5Ac(a2-3)Gal(b1-4)GlcNAc(b1-3)Gal(b1-4)GlcNAc
# Outline: as §1
# [30] = molecular target: Neu5Ac(a2-3)Gal(b1-4)GlcNAc(b1-3)Gal(b1-4)GlcNAc(b1-2)Man(a1-3)[Neu5Ac(a2-3)Gal(b1-4)GlcNAc(b1-3)Gal(b1-4)GlcNAc(b1-2)Man(a1-6)]Man(b1-4)GlcNAc(b1-4)GlcNAc
# Outline: as §1
# [31] = molecular target: Neu5Ac(a2-3)Gal(b1-4)GlcNAc(b1-3)Gal(b1-4)GlcNAc(b1-3)Gal(b1-4)GlcNAc
# Outline: as §1
# [32] = molecular target: Neu5Ac(a2-3)Gal(b1-4)GlcNAc(b1-3)Gal(b1-4)GlcNAc(b1-3)Gal(b1-4)GlcNAc(b1-2)Man(a1-3)[Neu5Ac(a2-3)Gal(b1-4)GlcNAc(b1-3)Gal(b1-4)GlcNAc(b1-3)Gal(b1-4)GlcNAc(b1-2)Man(a1-6)]GalNAc
# Outline: as §1
# [33] = molecular target: Neu5Ac(a2-3)Gal(b1-4)GlcNAc(b1-3)Gal(b1-4)GlcNAc(b1-3)GalNAc
# Outline: as §1
# [34] = molecular target: Neu5Ac(a2-3)Gal(b1-4)GlcNAc(b1-3)Gal(b1-4)GlcNAc(b1-3)[Neu5Ac(a2-3)Gal(b1-4)GlcNAc(b1-3)Gal(b1-4)GlcNAc(b1-6)]GalNAc
# Outline: as §1
# [35] = molecular target: Neu5Ac(a2-3)Gal(b1-4)GlcNAc(b1-3)Gal(b1-4)GlcNAc(b1-6)[Gal(b1-3)]GalNAc
# Outline: as §1
# [36] = molecular target: Neu5Ac(a2-3)Gal(b1-4)GlcNAc(b1-3)Gal(b1-4)[Fuc(a1-3)]GlcNAc
# Outline: as §1
# [37] = molecular target: Neu5Ac(a2-3)Gal(b1-4)GlcNAc(b1-3)GalNAc
# Outline: as §1
# [38] = molecular target: Neu5Ac(a2-3)Gal(b1-4)GlcNAc(b1-3)[Neu5Ac(a2-3)Gal(b1-4)GlcNAc(b1-6)]GalNAc
# Outline: as §1
binder,measurement,setting,value
PX14343A-bvu-539-29-539 (Bacteroides vulgatus) (protein) DSLTESSSNTFWQTPDDALMALASCYDALQSNQLYNSDQYSLGPLYMDCISDNGGHFNWSGWMEGYDMAMGIHTPSSSIIGSYWKDCYEVISRCNVLIANIDRVDMDASQKAIYQAEAKTIRALMYINLTMTYQDVPFLTAPLTIDEAECEKTDRAAIVAHVMTDLQDAAEVLPQNASSRGHITKGAALSLLGRVALYNEKWDDAIAAYKQVQGLGYSLDPSYAKLFTQSGETSPEIIFAVRYEGPGMSEGAAFNAHWNTPLEAMNGTIDLADAYYCKDGKPTTDTKIAELNGGGGLDVSKPNPAHFENRDPRLYSTLFVPGMLWNGKGGIDTSASNPYANVYGGAAASLSTVYVYKYFDPTDTSNSWDNGQDFYVVRYAEVLLSLAEAMVQKGGYVYSDVTALVNEVRQRADVNMPTVEEVEGTSLSKDELLEVIKHERRVELAFEGLRLFDLYRWKELDKAVANIENERTMYGLAYEARKFNGERDYVWPLPTAELDTNKKLVQHDLWK,glycan array binding signal (z-score),[1],-0.271
same,glycan array binding signal (z-score),[2],-0.218
same,glycan array binding signal (z-score),[3],-0.368
same,glycan array binding signal (z-score),[4],-0.246
same,glycan array binding signal (z-score),[5],-0.389
same,glycan array binding signal (z-score),[6],-0.158
same,glycan array binding signal (z-score),[7],-0.033
same,glycan array binding signal (z-score),[8],0.032
same,glycan array binding signal (z-score),[9],-0.151
same,glycan array binding signal (z-score),[10],0.264
same,glycan array binding signal (z-score),[11],-0.171
same,glycan array binding signal (z-score),[12],-0.325
same,glycan array binding signal (z-score),[13],0.662
same,glycan array binding signal (z-score),[14],-0.277
same,glycan array binding signal (z-score),[15],-0.372
same,glycan array binding signal (z-score),[16],-0.296
same,glycan array binding signal (z-score),[17],-0.373
same,glycan array binding signal (z-score),[18],-0.237
same,glycan array binding signal (z-score),[19],-0.45
same,glycan array binding signal (z-score),[20],-0.356
same,glycan array binding signal (z-score),[21],-0.157
same,glycan array binding signal (z-score),[22],-0.028
same,glycan array binding signal (z-score),[23],-0.173
same,glycan array binding signal (z-score),[24],-0.312
same,glycan array binding signal (z-score),[25],-0.24
same,glycan array binding signal (z-score),[26],-0.114
same,glycan array binding signal (z-score),[27],-0.377
same,glycan array binding signal (z-score),[28],-0.159
same,glycan array binding signal (z-score),[29],-0.378
same,glycan array binding signal (z-score),[30],-0.096
same,glycan array binding signal (z-score),[31],-0.325
same,glycan array binding signal (z-score),[32],8.35
same,glycan array binding signal (z-score),[33],-0.174
same,glycan array binding signal (z-score),[34],-0.178
same,glycan array binding signal (z-score),[35],-0.244
same,glycan array binding signal (z-score),[36],-0.359
same,glycan array binding signal (z-score),[37],-0.371
same,glycan array binding signal (z-score),[38],-0.306
